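96-well plates; 48 h exposure; 5 concentrations. Endpoints by linear interpolation between flanking doses. Not reached: highest tested concentration assigned. Abbreviation: GI50, concentration required for 50% inhibition of growth. TGI denotes the concentration required for complete inhibition of growth.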
Tested on: NCI-H322M lung
Test: NCI anticancer screen, dose series, 48 h

| Compound | GI50 [nM] | TGI [µM] |
| --- | --- | --- |
| Fc1ccc(-c2cc3nc(C(Cl)Cl)nc(-c4cccs4)n3n2)cc1 | 583 | 3.27 |
| COc1ccc([C@H]2[C@H](O)C(=O)N2c2cc(OC)c(OC)c(OC)c2)cc1 | < 22.7 | > 100 |
| O=C1/C(=C/c2ccccc2[N+](=O)[O-])Oc2ccc(O)cc21 | 11900 | 33.4 |
